Here are results for 40 compounds from ChEMBL document CHEMBL4888484, “Replenishing the malaria drug discovery pipeline: Screening and hit evaluation of the MMV Hit Generation Library 1 (HGL1) against asexual blood stage Plasmodium falciparum ,using a nano luciferase reporter read-out” (2022).

Broadly, the % Inhibition is the drop in the measured response relative to a control, in per cent.

Structures are written as SMILES. The campaign covered roughly 150,000 compounds. About 540 (0.36%) showed an effect of 50% or more. The list shows a part of the results.

The test deals with Plasmodium falciparum. The test is described as follows: Primary screen in NF54 nanoGlo assay, in single point, at 2uM, 72h; a lower Z score goes with more inhibition. As to conditions: timepoint 72 hour. The test is classed as functional, Erythrocyte.
As to `O=C1CCCCN1CCC(=O)N1CCc2onc(-c3cccc4ccccc34)c2C1`, the “% Inhibition” value is reported as -1% and the Z score worked out at 0.1.
For the compound `O=C(c1ccccc1)N1CCN(C(=O)c2cc3nc4c(c(C(F)(F)F)n3n2)CCc2ccccc2-4)CC1`, the “% Inhibition” value was -13% and the Z score came to 1.69.
On to `O=C(Nc1ccc2c(c1)OCO2)c1ccc(-c2ccccc2F)s1`, for which the “% Inhibition” value is reported as -15% and the Z score is reported as 1.4.
On the same counts, the results for `N#Cc1cccc(-c2nccn2CCc2cnn(-c3ccccc3)c2)c1` are -2% and 0.23.
With `COc1ccc(C)cc1NC(=O)[C@H]1CCCN(S(=O)(=O)c2cc3c(cc2C)NC(=O)CO3)C1`, the “% Inhibition” value is listed as -10% and the Z score is 1.16.
On to `O=C(Cc1ccccc1F)N1CC[C@H](OCc2ccccc2)C1`, for which the “% Inhibition” value is -6% and the Z score is 1.03.
On the same counts, the results for `CCNC(=O)[C@H]1CCN(S(=O)(=O)c2cc(-n3cccn3)ccc2OC)C1` are -17% and 2.17.
In the same order, the values of `CC1CCC(CC[C@](C)(O)C#CCN(C)C)CC1` (stereo not given in full) are 6% and -1.16.
In the same order, the values of `Fc1ccccc1N1CCN(c2c3c(nc4nc(Cc5ccc(Cl)cc5)nn24)CCCC3)CC1` are 33% and -0.73.
For `Cc1ccc2[nH]c(=O)c(CN3CCC(C(=O)N4CCCC4)CC3)cc2c1`, the “% Inhibition” value came to 6% and the Z score is recorded as -0.53.
On the same counts, the results for `CC[C@H]1CN(C(=O)c2coc(COc3ccc(OC)cc3)n2)CCN1` are 4% and -0.43.
In the same order, the values of `COc1ccc([C@@H](NC(=O)NCC(F)F)C(F)(F)F)cc1F` are -1% and 0.14.
With `CN1CCCN(c2ccc(CNC(=O)c3ccc(Oc4ccccc4)cc3)cn2)CC1`, the “% Inhibition” value is recorded as -6% and the Z score came out at 0.68.
On to `Cc1cccc(-c2noc(C3C4CCC(O4)C3C(F)(F)F)n2)c1F` (stereo not given), for which the “% Inhibition” value is reported as 0% and the Z score was -0.09.
With `COCc1nc([C@@H]2CCCCCN2CC(=O)N2CCCCC2)no1`, the “% Inhibition” value was -1% and the Z score was determined as 0.06.
On the same counts, the results for `CCCCc1nc(N2CCCN(C(=O)Nc3ccccc3)CC2)c2c(-c3ccc4ccccc4c3)noc2n1` are -9% and 1.42.
Consider `O=C(CCc1nnc(CCc2c[nH]c3ccccc23)o1)N1CCCCCC1`, for which the “% Inhibition” value was -9% and the Z score is given as 1.25.
On the same counts, the results for `O=C(CN1CCCCCC1)N1[C@@H]2CC[C@H]1C[C@@H](O)C2` are -3% and 0.39.
In the same order, the values of `CC(C)CS(=O)(=O)NC[C@H]1CN(C)C(=O)CO1` are -6% and 0.91.
In the same order, the values of `O=C1N(CCC2CCCCC2)CCC[C@@]1(O)CNC1CCC1` are 26% and -3.47.
As for `O=C(Nc1ncc2[nH]ccc2c1Br)[C@H]1CCCO1`, the “% Inhibition” value is -8% and the Z score is recorded as 0.75.
In the same order, the values of `CCCCN1CCN(c2ncc(F)c(OC)n2)CC1=O` are -15% and 2.49.
Take `COc1ccc(NC(=O)N(C)CCc2c(C)nn(C)c2C)cc1OC`: the “% Inhibition” value was -3% and the Z score worked out at 0.4.
In the same order, the values of `CN1CCN(c2ccc(CNC(=O)[C@H]3CCc4sc(C(=O)N(C)C)cc4C3)cc2)CC1` are -6% and 1.22.
In the case of `CCN(C(=O)c1cccc2cc[nH]c12)[C@H]1CCN(Cc2ccccc2)C1`, the “% Inhibition” value is recorded as -7% and the Z score was determined as 1.3.
Regarding `COc1ccc(CN(Cc2ccco2)C(=O)c2ccccc2F)cc1OCc1nc(CO)cs1`, the “% Inhibition” value is given as -5% and the Z score is 0.84.
On the same counts, the results for `CC(C)(C)CN1CCCC(N2CCC(n3ccnn3)C2)C1=O` (stereo not given) are 1% and -0.17.
In the same order, the values of `C=CCCS(=O)(=O)Nc1ccc(-n2cncn2)nc1` are -1% and 0.14.
For `COc1cccc(CN2CCC(n3ccnc3)CC2)c1OC(C)C`, the “% Inhibition” value is recorded as -8% and the Z score was found to be 0.99.
In the same order, the values of `COc1ccc(F)cc1C(=O)N1CC(C)[S+]([O-])C(C)C1` (stereo not given) are -8% and 1.28.
Consider `NC(=O)c1cc(Cl)cc(S(=O)(=O)NC[C@H]2CC[C@@H](CO)O2)c1`, for which the “% Inhibition” value came to 7% and the Z score is -0.99.
In the same order, the values of `CCOc1cccc2[nH]cc(CCNC(=O)[C@@H]3CCCO3)c12` are -8% and 0.81.
In the same order, the values of `O=C(c1ccccn1)N1CC[C@H](Nc2ncccc2C(F)(F)F)[C@@H](O)C1` are -11% and 1.66.
In the same order, the values of `CCn1ncc(N2CCC[C@H](CC(=O)Nc3cccc(OC)c3)C2)cc1=O` are -8% and 1.02.
`Cc1nn(C)c(C)c1S(=O)(=O)N1CCC(OCCOc2cccnc2)CC1`: the “% Inhibition” value was -5% and the Z score came to 0.76.
Regarding `Cc1ncc(NC(=O)c2scnc2C2CC2)c(C2CC2)n1`, the “% Inhibition” value is reported as -2% and the Z score turned out to be 0.3.
As for `Cc1ccc(-n2nc(CC(C)C)nc2-c2cnc[nH]c2=O)cc1C`, the “% Inhibition” value is given as -11% and the Z score came to 1.22.
In the same order, the values of `N#C/C(=C(/O)c1ccc(F)cc1)c1nc2ccccc2s1` are -31% and 3.61.
As to `CN(C1CCCCCC1)S(=O)(=O)c1cccs1`, the “% Inhibition” value is -17% and the Z score stood at 1.45.
In the case of `CC(O)C(NC(=O)C1CCCC1)C(=O)N[C@H](C(N)=O)C(C)(C)C` (stereo not given in full), the “% Inhibition” value is -9% and the Z score is recorded as 1.19.
